According to the supplement of paper PMC10300432:

B1: C5314 (protein)
chain 1: EVQLVQSGPEVKKPGESLKISCKGSGYSFSSYWIGWVRQMPGKGLEWMGIIYPADSDTRYRPSFQGQVTISADKSITTAYLQWSSLKASDTGMYYCASRAAADTFDIWGQGTMVTVSS
chain 2: QSVLTQPPSASGTPGQRVTISCSGSSSNIGSNPVSWYQQVPGTAPKVLVYLNNQRPSGVPDRFSGSKSGTSASLAISGLQSEDEADYYCAAWDDSLNGPWVFGGGTKLTVL
B2: C5303 (protein)
chain 1: EVQLVQSGVEVKKPGESLKISCKGSGYSLTTSWIGWVRQMPGKGLEWMGIIYPGDSDTRYSPSFQGQVTISADKSINTAYLQWSSLKASDTAMYYCARHRDRALYGEPFDLWGQGTMVTVSS
chain 2: DIQMTQSPSSLSASVGDRVTITCRSSQSITNYLNWYQQKPGKAPKLLIYGASSLQSGVPSRFSGSGSGTDFTLTISSLQPEDFATYYCQQSYSTPHTFGQGTKLEIK
B3: C5304 (protein)
chain 1: EVQLVQSGAEVKKPGESLRISCQGSGYSFISYWISWVRQMPGKGLEWMGRLDPSDSYTNYSPSFQGHVTFAADKSINTVYLQWSSLKASDTAIYYCARHDYGDYGAFDIWGQGTMVTVSS
chain 2: EIVLTQSPGTLSLSPGERATLSCRGSQSVSSSYLAWYQQKPGQAPRLLIYGASSRATGIPDRFSGSGSGTDFTLTISRLEPEDFAVYYCQQSGRSPTFGGGTKVEIK
B4: C5301 (protein)
chain 1: QVQLVQSGAEVKKPGSSVKVSCQASGGPFSRFAINWVRQAPGQGLEWMGGIIPGLGTTFYARHSHAQDFQGRVTITADESTSTAYLELSSLRSEDTAIYYCARDWWHYDRSGNYGYNWYFDLWGRGTLVTVSS
chain 2: QSVLTQPPSVSGAPGQRVTISCTGLSSNIGTDYDVHWYQQLPGTAPKLLIYGNTNRPSGVPDRFSGSRSGTSASLAITGLQAEDEADYFCQSYDSSLSSYVVFGGGTKVTVL
B5: C5313 (protein)
chain 1: QVQLQESGPGLVKPSQTLSLTCTVSGRSINSGGYYWSWIRQHPGKGLEWIGYIYYSGSTYYNPSLKSRVTISVDTSKNQFSLKLSSVTAADTAVYYCAKSWVPYYFDYWGQGTLVTVSS
chain 2: QSVLTQPPSVSGAPGQRVTISCTGSSSNIGAGFDVHWYQQLPGTAPKLLIYGNNNRPSGVPDRFSGSKSGTSASLAITGLQAEDEADYYCQSYDSNLSSPVVFGGGTKLTVL
B6: C5309 (protein)
chain 1: QLQLQESGPGLVKPSETLSLTCSVSGVSVRSHNFYWGWIRQPPGKGLEWIGSASYSGSTHYNPSLKSRVTISVDTSKSQFSLKLSSVTAADTAVYYCARQTYYYDRSGRPHHDLDHWGQGTLVIVSS
chain 2: DIQMTQSPSSLSASVGDRVTITCQASQDISNYLKWYQQKPGKAPKLLIYDASNLETGVPSRFSGSGSGTDFTFTISSLQPEDIATYYCQQFDNLPLTFGGGTKVEI
B7: C5310 (protein)
chain 1: EVQLVESGGGLVKPGGSLRLSCAASGFTFSSYTMNWVRQAPGKGLEWVSSINSLSTYIVYADSLKGRFTISRDNAKNSLYLQMNSLRAEDTALYYCARRRGGDDYVRFFDLWGRGTLVTVSS
chain 2: DIVMTQTPLSLPVTPGEPASISCRSSQSLLDSDDGNTFLDWYVQKPGQSPQLLIYTLSYRASGVPDRFSGSGSGTDFTLTISRVEAEDVGVYYCMQRIEFPLTFGQGTRLEIK
B8: C5307 (protein)
chain 1: QVQLVESGGGVVQPGRSLRLSCAASGFTFSNYDIHWVRQAPGKGLEWVAVISSDGSSKFYADSVKGRFTISRDNSKNTLFLQMNSLRAEDTAVYYCAKDYGDSRLDWFDTWGQGTLVTVSS
chain 2: DIQMTQSPSSLSASVGDRVTITCRASQTISSYLNWYQQKPGKAPKLLIYAASSLHSAVPSRFSGSGSGTDFTLTISGLQPEDFATYYCQQSYSSPPWTFGQGTKVEIK
B9: C5302 (protein)
chain 1: EVQLVESGGGLVKPGGSLRLSCAASGFIFKTSDMNWVRQAPGGGLEWVSSIGGRNNFLYYADSVKGRFTISRDNAKNSLYLQMNNLRAEDTAVYYCAGGGYHPLLEPNWFDPWGQGTLVTVSS
chain 2: EIVMTQSPATLSVSPGERATLSCRASQSVSNNLAWYQQKFGQAPRLLIYGASTRATGIPARFSGSGSGTEFTLTISSLQSEDFAVYYCQQYHIWPPTLTFGGGTKVEIK
B10: C5053 (protein)
chain 1: QVQLVQSGAEVKKPGSSVKVSCKASGGPFNIHGISWVRQAPGQGPEWMGGIIPITGTANYAQKFKGRVTITADTSTSTAYMELNSLRSEDTAVYYCARDGRFHYGSSGYYYIAFDVWGPGTMVTVSS
chain 2: DIQMTQSPSSLSASVGDRVTITCRASQNITRHLNWYQQKPGKAPQILIYGASNLQVGVPSRFSGSGSWTDFTLTISSLQLEDFATYYCQQSYNAPRTFGQGTKLEIK
B11: C5305 (protein)
chain 1: EVQLVESGGGLVQPGGSLRLSCVASGFTFSSYDMHWVRQTTGKGLEWVSGIGTSGDTYYEDTVKGRFTISRENAKNSVYLQMNSLRAGDTAEYYCVRGADSDYYWYFDLWGRGTLVTVSS
chain 2: DIQMTQSPSSLSASVGDRVTITCRASQSIRSYLNWYQQKPGRAPKLLIFGASSLQRGVPSRFSGSGSGTEFTLTISSLQPEDFATYYCQQGYTMPPPTFGQGTRLEIK
B12: C5311 (protein)
chain 1: QVQLVESGGGVVQPGRSLRLSCAASGFTFSRYDMHWVRQAPGEGLEWVAAISFDGDNVYYSDSVKGRFTISRDNSKNTLYLQMSSLKAEDTSLYYCAKVGPSYASGWFEGYYFDYWGQGTLVTVSS
chain 2: DIQMTQSPSSLSASVGDTVTITCRTNQSITKYLNWYQQKTGKAPKLLIYAASSLQSGVPSRFSGSGSGTAFTLTINSLQPADFATYYCQLSYGSPTWTFGQGTKVEIK
B13: C5306 (protein)
chain 1: QVQLVQSGAEVKKPGASVKVSCKASGYTFTSYGITWVRQAPGQGLEWLGWISAYNGNTNYARKLQGRVTMTTDTSTSTAYMEVRSLRSDDTAVYYCARGMAVAGTAPPDYWGQGTLVTVSS
chain 2: QSVLTQPPSASGTPGQRVTISCSGSSSNIGSNFVYWYQQLPGTAPKLLIYSSNQRPSGVPDRFSGSKSGTSASLAITGLRSEDEADYYCAAWDDSLSGYVVFGGGTKLTVL
B14: C5308 (protein)
chain 1: EVQLVQSGAEVKKPGESLKISCKGSGYRLIDHWIGWVRQMPGKGLDWMGIIYPGDSDSRYSPSFQGQVTFSVDRSTSTAYLQWSSLKVSDTAVYYCARSLDRSPFEPFDMWGQGTVVTVTS
chain 2: EIVLTQSPGTLSLSPGERATLSCRASQSISSTYFAWYQQKPGQAPRLLIYGASSRATGIPDRFSGSGSGTDFTLTISRLEPEDFAVYYCQQYGSPWTFGQGTKVEI
B15: C5312 (protein)
chain 1: QVQLVQSGAEVKKPGSSVKVSCRASGGTFSNSAISWVRQAPGQGLEWMGGIIPFFGAAKNAQKFQGRVTITTDESTSITYMELSSLRSDDTAMYYCASGGYFDNVWGTFVARYDFWGQGTLVTVSS
chain 2: QSALTQPASVSGSPGQSITISCTGISSDVGGYNYVSWYQQHPGNAPQLIIYDVSNRPSGVSNRFSGSKSGDTASLTISGLQADDEADYFCSSYTSSTTFYVFGTGTKVTVL

The binders below were run against SARS-CoV-2 Omicron BA.1 spike pseudovirus (assay: pseudovirus neutralization IC50; higher = weaker neutralization).
Experimental: (§1)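 Single-round luciferase reporter pseudovirus mixed with antibody dilutions and put on HT1080-ACE2 clone 14 cells for 48 h; signal relative to no-antibody wells, four-parameter fit.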

| Binder | pseudovirus neutralization IC50 |
| --- | --- |
| B1 | 0.137 µg/mL |
| B2 | > 1 µg/mL |
| B3 | > 1 µg/mL |
| B4 | 0.147 µg/mL |
| B5 | 0.101 µg/mL |
| B6 | 0.0922 µg/mL |
| B7 | > 1 µg/mL |
| B8 | > 1 µg/mL |
| B9 | 0.98 µg/mL |
| B10 | 0.047 µg/mL |
| B11 | > 1 µg/mL |
| B12 | 0.743 µg/mL |
| B13 | > 1 µg/mL |
| B14 | > 1 µg/mL |
| B15 | 0.00031 µg/mL |

What follows are binders tested against SARS-CoV-2 Omicron BA.4/5 spike pseudovirus in the same assay as above.
Experimental: as §1

| Binder | pseudovirus neutralization IC50 |
| --- | --- |
| B1 | 0.279 µg/mL |
| B2 | > 1 µg/mL |
| B3 | > 1 µg/mL |
| B4 | 0.322 µg/mL |
| B5 | > 1 µg/mL |
| B6 | 0.968 µg/mL |
| B7 | > 1 µg/mL |
| B8 | 0.957 µg/mL |
| B9 | 0.681 µg/mL |
| B10 | > 1 µg/mL |
| B11 | 0.754 µg/mL |
| B12 | > 1 µg/mL |
| B13 | > 1 µg/mL |
| B14 | > 1 µg/mL |
| B15 | > 1 µg/mL |

These binders were tested against SARS-CoV-2 Wuhan-Hu-1 spike pseudovirus in the same assay as above.
Experimental: as §1

| Binder | pseudovirus neutralization IC50 |
| --- | --- |
| B1 | 0.136 µg/mL |
| B2 | 0.0899 µg/mL |
| B3 | 0.115 µg/mL |
| B4 | 0.0369 µg/mL |
| B5 | 0.611 µg/mL |
| B6 | 0.00698 µg/mL |
| B7 | > 1 µg/mL |
| B8 | 0.657 µg/mL |
| B9 | 0.256 µg/mL |
| B10 | 0.000747 µg/mL |
| B11 | 0.741 µg/mL |
| B12 | 0.434 µg/mL |
| B13 | > 1 µg/mL |
| B14 | 0.0218 µg/mL |
| B15 | 0.00178 µg/mL |

Each binder was assayed against SARS-CoV-2 Wuhan-Hu-1 spike receptor-binding domain (assay: ELISA binding EC50; higher = weaker binding; ELISA of recombinant human antibody on coated antigen, from 10 µg/ml in fourfold dilutions; four-parameter fit.).

| Binder | ELISA binding EC50 |
| --- | --- |
| B1 | 0.00424 µg/mL |
| B2 | 0.0038 µg/mL |
| B3 | 0.00661 µg/mL |
| B4 | 0.00393 µg/mL |
| B5 | 0.00524 µg/mL |
| B6 | 0.00387 µg/mL |
| B7 | 0.00784 µg/mL |
| B8 | 0.00423 µg/mL |
| B9 | 0.00308 µg/mL |
| B10 | 0.00348 µg/mL |
| B11 | 0.00317 µg/mL |
| B12 | 0.00466 µg/mL |
| B13 | 0.00776 µg/mL |
| B14 | 0.00428 µg/mL |
| B15 | 0.00414 µg/mL |

Recombinant human monoclonal antibodies (heavy:light variable regions). ELISA EC50 on the named antigen, from 10 µg/ml down; IC50 against spike pseudovirus on HT1080-ACE2 cells, 48 h; lower = stronger. Calls: IC50 above 1,000 ng/ml = non-neutralizing; EC50 above 1,000 ng/ml = non-binder.
